Data: PMC4336329 (PLoS ONE, 2015)
Hit rate of the full screen: of about 310,000 compounds, about 14,000 (4.5%) showed an effect of 50% or more. The effect is printed as a negative number. The list shows a part of the results.

The molecules below were run against human ether-à-go-go-related gene (hERG) potassium channel (human, UniProt Q12809) (assay: primary screen, population patch clamp on CHO cells stably expressing hERG).
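Also: peak tail current of the secondary pulse compared with the same well before compound.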

Chain of human ether-à-go-go-related gene (hERG) potassium channel (Q12809 whole entry, looked up): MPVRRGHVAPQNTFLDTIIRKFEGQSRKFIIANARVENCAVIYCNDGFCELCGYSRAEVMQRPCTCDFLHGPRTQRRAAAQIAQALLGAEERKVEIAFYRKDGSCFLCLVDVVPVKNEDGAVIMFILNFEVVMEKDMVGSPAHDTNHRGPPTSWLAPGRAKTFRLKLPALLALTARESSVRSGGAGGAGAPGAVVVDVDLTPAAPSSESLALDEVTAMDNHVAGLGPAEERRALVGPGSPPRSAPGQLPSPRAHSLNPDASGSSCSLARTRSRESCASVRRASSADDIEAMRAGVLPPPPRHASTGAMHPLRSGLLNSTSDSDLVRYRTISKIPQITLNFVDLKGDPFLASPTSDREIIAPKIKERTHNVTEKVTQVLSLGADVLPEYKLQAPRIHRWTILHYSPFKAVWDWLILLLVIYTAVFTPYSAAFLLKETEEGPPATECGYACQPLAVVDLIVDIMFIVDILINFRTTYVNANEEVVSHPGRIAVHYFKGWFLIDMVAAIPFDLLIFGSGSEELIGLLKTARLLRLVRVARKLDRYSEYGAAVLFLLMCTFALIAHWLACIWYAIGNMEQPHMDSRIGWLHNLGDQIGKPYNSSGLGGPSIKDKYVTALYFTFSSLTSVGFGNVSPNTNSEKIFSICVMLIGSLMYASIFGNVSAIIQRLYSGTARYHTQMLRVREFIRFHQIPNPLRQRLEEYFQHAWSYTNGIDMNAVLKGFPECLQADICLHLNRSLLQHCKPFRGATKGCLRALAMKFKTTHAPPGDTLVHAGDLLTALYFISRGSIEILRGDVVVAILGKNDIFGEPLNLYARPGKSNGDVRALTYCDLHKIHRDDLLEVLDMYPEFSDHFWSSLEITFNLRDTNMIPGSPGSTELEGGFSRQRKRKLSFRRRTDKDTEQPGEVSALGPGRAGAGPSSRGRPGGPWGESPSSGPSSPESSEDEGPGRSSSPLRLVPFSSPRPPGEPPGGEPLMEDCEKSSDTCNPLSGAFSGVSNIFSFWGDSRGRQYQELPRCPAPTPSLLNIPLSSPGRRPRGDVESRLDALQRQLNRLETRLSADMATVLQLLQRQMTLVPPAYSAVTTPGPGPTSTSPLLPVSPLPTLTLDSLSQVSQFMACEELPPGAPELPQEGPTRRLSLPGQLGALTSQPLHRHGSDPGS

Structure (SMILES) | hERG current change (%, negative = inhibition) at 10uM [%]
COc1ccc2sc(NCc3ccccc3)nc2c1 | 18.6
O=C1NCCCc2nonc21 | 12.8
C#CCOCCOCCOCCNc1nc(N2CCN(C(=O)C(Cc3ccc(O)cc3)n3cc(C(N)C(C)CC)nn3)CC2)nc(N2CCN(C(=O)C(Cc3ccc(O)cc3)n3cc(C(N)C(C)CC)nn3)CC2)n1.Cl (stereo not drawn) | -13.3
CCCC[n+]1ccn(-c2nc3ccccc3nc2[N-]S(=O)(=O)c2ccccc2)c1 | -5.32
CCC1(C(=O)c2ccccc2)C2c3cc(Br)ccc3OC(=O)C21C(=O)N1CCOCC1 (stereo not drawn) | -13
COC(=O)Cc1c(C)c2ccc(OCc3nn[nH]n3)c(C)c2oc1=O | 3.5
Cc1cccc(OCC(=O)NCc2n[nH]c(=O)c3ccccc23)c1 | -11.7
O=C(Cc1cccs1)N1CCN=C1SCc1ccccc1Cl | 2.57
O=C(CN1C(=O)c2ccccc2C1=O)Oc1ccc(F)cc1 | 14.5
COC(=O)c1sc(NC(=O)c2c(OC)cccc2OC)c(C#N)c1C | 15.1
CCCCCCC(C)n1cc(C(C)=O)c(=O)[nH]c1=O (stereo not drawn) | -2.8
CC1(C)NC(C)(C)c2nonc2/C1=N\O | -1.78
CCN1CCC[C@H]1CNC(=O)c1c(OC)ccc(Br)c1OC.Cl | -12.2
CCc1nnc(NC(=O)CSc2nnc(Cc3ccccc3)o2)s1 | 21.3
Fc1cccc(CN2CCN(c3nc4nonc4nc3NC3CC3)CC2)c1 | -10.3
COc1ccc(-c2cc(C(=O)NC(C(=O)O)C(C)C)c(C)o2)cc1OC (stereo not drawn) | -1.31
COc1ccc(C(=O)Nc2ccnn2C2CCN(C(=O)c3cnsn3)CC2)cc1 | -11.5
CCCCN1CC(=O)N2[C@H]3c4cc(Cl)ccc4OC[C@@H]3[C@H](C(=O)OCC)[C@]2(C)C1=O | 1.74
COc1ccc(C(=O)O/N=C(\C)c2nccs2)cc1 | 9.15
CC1=NNC(=O)C1Cc1ccccc1 (stereo not drawn) | 4.76
CC(C)C(=O)Nc1sc2c(c1-c1nc3ccccc3[nH]1)CCCC2 | 5.94
CC(C)c1ccc(OCC(=O)Nc2ccccc2C(=O)N2CCOCC2)cc1 | -18.9
Cc1ccc(C(=O)NN2C(=O)C3C(C2=O)C2C=CC3C23CC3)cc1 (stereo not drawn) | 15.9

Structure (SMILES) | hERG current change (%, negative = inhibition) at 10uM [%]
O=S(=O)(CC12C3C4C5C1C2C(Br)(C43)C51OCCO1)c1ccccc1 (stereo not drawn) | 12.1
CN1CCN(C(=S)SCC(=O)N2CCCc3ccccc32)CC1 | -2.03
COc1ccc2oc(C(=O)CCC(=O)O)c(N)c2c1 | 4.93
Cc1ccc(NC(=O)CC2SC(=Nc3ccc(O)cc3)NC2=O)cc1 (stereo not drawn) | 20.8
CCCC(=O)Nc1ccc(-c2nc3cc(C)ccc3o2)cc1 | 13
COc1ccccc1CNC(=O)c1c(O)c2cc(OC)c(OC)cc2[nH]c1=O | 6.86
CCOC(=O)C1=C(C)Nc2ccccc2N=C1NC(=O)c1oc2ccccc2c1COC | -14.5
Brc1cccc(/C=N\n2cnnc2)c1 | -3.55
Cc1ccccc1CS(=O)(=O)c1snnc1C | 5.66
CCc1ccccc1N(CC(=O)N1CCN(c2ccccc2)CC1)S(C)(=O)=O | -9.83
Cc1ccc([N+](=O)[O-])cc1N/C=C/C(=O)c1ccco1 | -3.17
Cc1ccc(CCNC(=O)c2cc(S(=O)(=O)N3CCCC3)cn2C)cc1 | -15.4
COc1ccc(/C=N/Nc2ncc(C(F)(F)F)cc2Cl)cc1OC | 3
CC1CCC2(CC1)NC(=O)c1ccccc1O2 (stereo not drawn) | -4.85
CC(C)(C)c1ccc(OCC(=O)N(c2ccccn2)C2CCCCC2)cc1 | -6.47
O=C(CCCOC(=O)c1ccc(O)cc1O)c1ccccc1 | -13.7
CC(=O)N1CCc2c(sc(NC(=O)c3cccc(N4C(=O)CCC4=O)c3)c2C(N)=O)C1 | 13.3
O=C(c1cc(N2CCOCC2)c(F)cc1[N+](=O)[O-])N1CCOCC1 | 16.7
COc1ccc(Br)cc1C(=O)Nc1cccc(C)c1 | 0.491
CN(C)c1cc[n+](CC(=O)Nc2ccc(Cl)cc2)cc1.[Cl-] | 7.28
O=C(O)CC1(CC(=O)Nc2ccc3c(c2)C(=O)OC3)CCCCC1 | 12.2
CC(C(=O)Nc1nc2ccccc2[nH]1)N1C(=O)C2CC=CCC2C1=O (stereo not drawn) | 7.17
CCCCC(=O)Nc1nnc(S(=O)(=O)N(C)Cc2ccco2)s1 | 6.09

Structure (SMILES) | hERG current change (%, negative = inhibition) at 10uM [%]
O=S(=O)(Nc1ccncc1)c1ccccc1 | 8.95
FC(F)(F)c1cccc(-c2nn[nH]n2)c1 | 6.05
COc1ccc(NC(=S)NC(NC(=O)CF)C(Cl)(Cl)Cl)cc1[N+](=O)[O-] (stereo not drawn) | 15
CCCn1c(N)c(N(CCOC)C(=O)c2cccc(C(F)(F)F)c2)c(=O)[nH]c1=O | 12
O=C(CC(=O)NN=C1CCCCCC1)NCc1cccnc1 | 46.3
CC(C)CNC(=S)N(CCCO)Cc1cc2cc3c(cc2[nH]c1=O)OCO3 | -1.73
CC(C)CC(c1nnnn1Cc1ccc2c(c1)OCO2)N1CCC(C(N)=O)CC1 (stereo not drawn) | 25.8
Cl.NCCSC1CC(=O)N(c2ccc(F)cc2)C1=O (stereo not drawn) | 17
CCc1n[nH]c(=S)n1/N=C/c1c[nH]c2ccc(Br)cc12 | 23.9
CCn1ccc(C(=O)N2CCN(c3ncccn3)CC2)n1 | 10.3
COc1ccc(Oc2nc(C)cc(C)c2S(C)(=O)=O)cc1 | 1.99
COc1cccc(-c2nnc(NC(=O)c3ccc(S(=O)(=O)N4CC(C)OC(C)C4)cc3)o2)c1 (stereo not drawn) | -10
Cc1ccc(NC(=S)NCC(O)c2ccccc2)c(C)c1 (stereo not drawn) | 15.6
COc1ccc(-c2nc3ccccc3o2)cc1NC(=O)c1ccc(Br)o1 | 4.92
Cc1onc(-c2ccccc2)c1C(=O)NCCN1CCOCC1 | 16.8
Cc1ccc(OCC(=O)N(Cc2ccc(N(C)C)cc2)C2CCS(=O)(=O)C2)cc1C (stereo not drawn) | -19.3
CCOC(=O)C1(CC2CC2)CCN(Cc2cn(C)c3ccccc23)CC1 | -31
Cc1nc(C(=O)Nc2cccc(Cl)c2Cl)nn1-c1cc(OC(C)C)c(Cl)cc1Cl | 31.1
O=C(Nc1cccc(NC(=O)c2cccc(F)c2)n1)c1cccc(F)c1 | -10
COC(=O)CCN(c1ccccc1)S(=O)(=O)c1cc(-c2cc(C)no2)ccc1C | -23.9
CCOC(=O)c1c(-c2ccc(C)cc2)csc1/N=C(\C)C1=C(O)c2ccccc2C1=O | 12
CN(C)/C=N/C(=S)Nc1ccccc1F | -1.61
COc1cccc(-c2cc(C(F)(F)F)n3nc(C(=O)N4CCC5(CC4)OCCO5)cc3n2)c1 | -16.2

Structure (SMILES) | hERG current change (%, negative = inhibition) at 10uM [%]
CCOc1ccc(N2C(=O)Nc3ccccc3C2(O)C(=O)NCc2ccccc2)cc1 (stereo not drawn) | 19
O=C(N/N=C/c1ccc[nH]1)c1cccnc1 | 3.61
O=C1CCN(C(=O)CSc2ccc(Cl)cc2)N1 | 17.4
Cc1cccc2cc(C#N)c(SCC(=O)Nc3ccccc3N3CCOCC3)nc12 | 11.6
O=C(COC(=O)Cc1ccc(F)cc1)NCc1ccco1 | 0.961
O=C(CCC(=O)OCc1cccc(C(=O)Oc2ccccc2)c1)Nc1cccc2ccccc12 | 8.85
O=C(c1cccnc1)c1ncc(C(F)(F)F)cc1Cl | -3.33
CC(C)(C#N)c1cc(Cn2cncn2)cc(C(C)(C)C#N)c1 | -5.31
CCn1c(CNC(=O)c2ccc3c(c2)OCO3)nnc1SCC(=O)Nc1cc(C)ccc1OC | -25.4
NC(=S)NNc1c(F)c(F)c(F)c(F)c1F | 28.9
Cc1sc2nc(NCCO)[nH]c(=O)c2c1C | 11.5
O=c1cccccc1NN=C1CCCCCC1 | 12.5
COCCCN1C(=O)C(O)=C(C(=O)c2ccco2)C1c1ccc(Br)cc1 (stereo not drawn) | -6.68
O=C(COC(=O)c1cc(=O)[nH]c2ccccc12)NCc1ccc(F)cc1 | -11.5
CN(C)CCCn1c2c(c(SCC(=O)Nc3cccc4ccccc34)nc1=O)CCC2 | -38.4
COc1ccc(CNC(=O)CNC(=O)c2ccc(Br)o2)cc1OC | 23.7
CC(C)CC(=O)N1CCN(Cc2cccc([N+](=O)[O-])c2)CC1 | 5.78
CC1CCCN(CCCN2C(=O)C3C(C(=O)Nc4ccc(Cl)cc4)C4C=CC3(O4)C2C(=O)NC2CCCCC2)C1 (stereo not drawn) | -7.67
CC1(C)Cc2c(c(-c3ccccc3)[nH]c(=O)c2C#N)CS1 | 15.3
Cn1ccnc1C1CCCCN1Cc1nc(Cc2cccc(C(F)(F)F)c2)no1 (stereo not drawn) | -15.4
CCNc1nc(Cl)nc(-c2cn(-c3ccccc3)c3ccccc23)n1 | 11.5
